Measured values taken from the supplement of paper PMC8728848.
This is one part of the list.

Legend:
Assay in all cases: glycan array binding signal (z-score within array); higher = stronger binding
Details in all cases: glycan notation: IUPAC condensed, linker removed
[1] = molecular target: Neu5Ac(a2-3)Gal(b1-3)[Neu5Ac(a2-6)]GlcNAc(b1-3)[Fuc(a1-3)[Gal(b1-4)]GlcNAc(b1-6)]Gal(b1-4)Glc
Procedure, shortened: (§1)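 From the Consortium for Functional Glycomics database, 3228 arrays were curated, keeping only those whose protein sequence was available. Binding is given as a within-array Z-score averaged across arrays sharing a protein sequence and across linkers. Negative Z-scores can be read as non-binding.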

[2] = molecular target: Neu5Ac(a2-3)Gal(b1-4)Glc
Procedure, shortened: as §1

[3] = molecular target: Neu5Ac(a2-3)Gal(b1-4)GlcNAc
Procedure, shortened: as §1

[4] = molecular target: Neu5Ac(a2-3)Gal(b1-4)GlcNAc(b1-2)Man
Procedure, shortened: as §1

[5] = molecular target: Neu5Ac(a2-3)Gal(b1-4)GlcNAc(b1-2)Man(a1-3)[GlcNAc(b1-2)Man(b1-4)GlcNAc(b1-2)Man(a1-6)]Man(b1-4)GlcNAc(b1-4)GlcNAc
Procedure, shortened: as §1

[6] = molecular target: Neu5Ac(a2-3)Gal(b1-4)GlcNAc(b1-2)Man(a1-3)[Neu5Ac(a2-3)Gal(b1-4)GlcNAc(b1-2)Man(a1-6)]Man(b1-4)GlcNAc(b1-4)[Fuc(a1-6)]GlcNAc
Procedure, shortened: as §1

[7] = molecular target: Neu5Ac(a2-3)Gal(b1-4)GlcNAc(b1-2)Man(a1-3)[Neu5Ac(a2-6)Gal(b1-4)GlcNAc(b1-2)Man(a1-6)]Man(b1-4)GlcNAc(b1-4)GlcNAc
Procedure, shortened: as §1

[8] = molecular target: Neu5Ac(a2-3)Gal(b1-4)GlcNAc(b1-2)[Neu5Ac(a2-3)Gal(b1-4)GlcNAc(b1-6)]Man(a1-6)[Neu5Ac(a2-3)Gal(b1-4)GlcNAc(b1-2)Man(a1-3)]Man(b1-4)GlcNAc(b1-4)GlcNAc
Procedure, shortened: as §1

[9] = molecular target: Neu5Ac(a2-3)Gal(b1-4)GlcNAc(b1-3)Gal
Procedure, shortened: as §1

[10] = molecular target: Neu5Ac(a2-3)Gal(b1-4)GlcNAc(b1-3)Gal(b1-3)GlcNAc
Procedure, shortened: as §1

[11] = molecular target: Neu5Ac(a2-3)Gal(b1-4)GlcNAc(b1-3)Gal(b1-4)GlcNAc
Procedure, shortened: as §1

[12] = molecular target: Neu5Ac(a2-3)Gal(b1-4)GlcNAc(b1-3)Gal(b1-4)GlcNAc(b1-3)Gal(b1-4)GlcNAc
Procedure, shortened: as §1

[13] = molecular target: Neu5Ac(a2-3)Gal(b1-4)GlcNAc(b1-3)Gal(b1-4)[Fuc(a1-3)]GlcNAc
Procedure, shortened: as §1

[14] = molecular target: Neu5Ac(a2-3)Gal(b1-4)GlcNAc(b1-3)GalNAc
Procedure, shortened: as §1

[15] = molecular target: Neu5Ac(a2-3)Gal(b1-4)GlcNAc(b1-3)[Neu5Ac(a2-3)Gal(b1-4)GlcNAc(b1-6)]GalNAc
Procedure, shortened: as §1

[16] = molecular target: Neu5Ac(a2-3)Gal(b1-4)GlcNAc(b1-6)GalNAc
Procedure, shortened: as §1

[17] = molecular target: Neu5Ac(a2-3)Gal(b1-4)GlcNAc(b1-6)[Gal(b1-3)]GalNAc
Procedure, shortened: as §1

[18] = molecular target: Neu5Ac(a2-3)Gal(b1-4)GlcNAc(b1-6)[Neu5Ac(a2-3)Gal(b1-3)]GalNAc
Procedure, shortened: as §1

[19] = molecular target: Neu5Ac(a2-3)Gal(b1-4)GlcNAc6S
Procedure, shortened: as §1

[20] = molecular target: Neu5Ac(a2-3)Gal(b1-4)[Fuc(a1-3)]GlcNAc
Procedure, shortened: as §1

[21] = molecular target: Neu5Ac(a2-3)Gal(b1-4)[Fuc(a1-3)]GlcNAc(b1-3)Gal
Procedure, shortened: as §1

[22] = molecular target: Neu5Ac(a2-3)Gal(b1-4)[Fuc(a1-3)]GlcNAc(b1-3)Gal(b1-4)GlcNAc
Procedure, shortened: as §1

[23] = molecular target: Neu5Ac(a2-3)Gal(b1-4)[Fuc(a1-3)]GlcNAc(b1-3)Gal(b1-4)[Fuc(a1-3)]GlcNAc(b1-3)Gal(b1-4)[Fuc(a1-3)]GlcNAc
Procedure, shortened: as §1

[24] = molecular target: Neu5Ac(a2-3)Gal(b1-4)[Fuc(a1-3)]GlcNAc(b1-3)GalNAc
Procedure, shortened: as §1

[25] = molecular target: Neu5Ac(a2-3)Gal(b1-4)[Fuc(a1-3)]GlcNAc(b1-6)[Gal(b1-3)]GalNAc
Procedure, shortened: as §1

[26] = molecular target: Neu5Ac(a2-3)Gal(b1-4)[Fuc(a1-3)]GlcNAc6S
Procedure, shortened: as §1

[27] = molecular target: Neu5Ac(a2-3)Gal6S(b1-4)GlcNAc
Procedure, shortened: as §1

[28] = molecular target: Neu5Ac(a2-3)Gal6S(b1-4)[Fuc(a1-3)]GlcNAc
Procedure, shortened: as §1

[29] = molecular target: Neu5Ac(a2-3)GalNAc
Procedure, shortened: as §1

[30] = molecular target: Neu5Ac(a2-3)GalNAc(b1-4)GlcNAc
Procedure, shortened: as §1

B1: PRKCE (Homo sapiens), Q02156 (protein)
chain: MVVFNGLLKIKICEAVSLKPTAWSLRHAVGPRPQTFLLDPYIALNVDDSRIGQTATKQKTNSPAWHDEFVTDVCNGRKIELAVFHDAPIGYDDFVANCTIQFEELLQNGSRHFEDWIDLEPEGRVYVIIDLSGSSGEAPKDNEERVFRERMRPRKRQGAVRRRVHQVNGHKFMATYLRQPTYCSHCRDFIWGVIGKQGYQCQVCTCVVHKRCHELIITKCAGLKKQETPDQVGSQRFSVNMPHKFGIHNYKVPTFCDHCGSLLWGLLRQGLQCKVCKMNVHRRCETNVAPNCGVDARGIAKVLADLGVTPDKITNSGQRRKKLIAGAESPQPASGSSPSEEDRSKSAPTSPCDQEIKELENNIRKALSFDNRGEEHRAASSPDGQLMSPGENGEVRQGQAKRLGLDEFNFIKVLGKGSFGKVMLAELKGKDEVYAVKVLKKDVILQDDDVDCTMTEKRILALARKHPYLTQLYCCFQTKDRLFFVMEYVNGGDLMFQIQRSRKFDEPRSRFYAAEVTSALMFLHQHGVIYRDLKLDNILLDAEGHCKLADFGMCKEGILNGVTTTTFCGTPDYIAPEILQELEYGPSVDWWALGVLMYEMMAGQPPFEADNEDDLFESILHDDVLYPVWLSKEAVSILKAFMTKNPHKRLGCVASQNGEDAIKQHPFFKEIDWVLLEQKKIKPPFKPRIKTKRDVNNFDQDFTREEPVLTLVDEAIVKQINQEEFKGFSYFGEDLMP
- glycan array binding signal (z-score) [1]: -0.081
- glycan array binding signal (z-score) [2]: -0.32
- glycan array binding signal (z-score) [3]: -0.379
- glycan array binding signal (z-score) [4]: 0.71
- glycan array binding signal (z-score) [5]: 1.1
- glycan array binding signal (z-score) [6]: -0.386
- glycan array binding signal (z-score) [7]: 2.01
- glycan array binding signal (z-score) [8]: 0.336
- glycan array binding signal (z-score) [9]: -0.106
- glycan array binding signal (z-score) [10]: -0.392
- glycan array binding signal (z-score) [11]: -0.338
- glycan array binding signal (z-score) [12]: -0.293
- glycan array binding signal (z-score) [13]: -0.192
- glycan array binding signal (z-score) [14]: -0.405
- glycan array binding signal (z-score) [15]: -0.354
- glycan array binding signal (z-score) [16]: -0.375
- glycan array binding signal (z-score) [17]: -0.367
- glycan array binding signal (z-score) [18]: -0.432
- glycan array binding signal (z-score) [19]: 0.349
- glycan array binding signal (z-score) [20]: -0.351
- glycan array binding signal (z-score) [21]: -0.258
- glycan array binding signal (z-score) [22]: -0.344
- glycan array binding signal (z-score) [23]: -0.381
- glycan array binding signal (z-score) [24]: -0.385
- glycan array binding signal (z-score) [25]: -0.215
- glycan array binding signal (z-score) [26]: -0.2
- glycan array binding signal (z-score) [27]: -0.365
- glycan array binding signal (z-score) [28]: -0.299
- glycan array binding signal (z-score) [29]: -0.335
- glycan array binding signal (z-score) [30]: -0.336
